Paper PMC4336329 (PLoS ONE, 2015)
Among all 310,000 compounds or so, about 2,200 (0.71%) showed an effect of 50% or more. Effects have a minus sign here. This is one part of the list.

target: human ether-à-go-go-related gene (hERG) potassium channel (human, UniProt Q12809); assay: primary screen, population patch clamp on CHO cells stably expressing hERG
Sequence (Q12809 whole entry, looked up): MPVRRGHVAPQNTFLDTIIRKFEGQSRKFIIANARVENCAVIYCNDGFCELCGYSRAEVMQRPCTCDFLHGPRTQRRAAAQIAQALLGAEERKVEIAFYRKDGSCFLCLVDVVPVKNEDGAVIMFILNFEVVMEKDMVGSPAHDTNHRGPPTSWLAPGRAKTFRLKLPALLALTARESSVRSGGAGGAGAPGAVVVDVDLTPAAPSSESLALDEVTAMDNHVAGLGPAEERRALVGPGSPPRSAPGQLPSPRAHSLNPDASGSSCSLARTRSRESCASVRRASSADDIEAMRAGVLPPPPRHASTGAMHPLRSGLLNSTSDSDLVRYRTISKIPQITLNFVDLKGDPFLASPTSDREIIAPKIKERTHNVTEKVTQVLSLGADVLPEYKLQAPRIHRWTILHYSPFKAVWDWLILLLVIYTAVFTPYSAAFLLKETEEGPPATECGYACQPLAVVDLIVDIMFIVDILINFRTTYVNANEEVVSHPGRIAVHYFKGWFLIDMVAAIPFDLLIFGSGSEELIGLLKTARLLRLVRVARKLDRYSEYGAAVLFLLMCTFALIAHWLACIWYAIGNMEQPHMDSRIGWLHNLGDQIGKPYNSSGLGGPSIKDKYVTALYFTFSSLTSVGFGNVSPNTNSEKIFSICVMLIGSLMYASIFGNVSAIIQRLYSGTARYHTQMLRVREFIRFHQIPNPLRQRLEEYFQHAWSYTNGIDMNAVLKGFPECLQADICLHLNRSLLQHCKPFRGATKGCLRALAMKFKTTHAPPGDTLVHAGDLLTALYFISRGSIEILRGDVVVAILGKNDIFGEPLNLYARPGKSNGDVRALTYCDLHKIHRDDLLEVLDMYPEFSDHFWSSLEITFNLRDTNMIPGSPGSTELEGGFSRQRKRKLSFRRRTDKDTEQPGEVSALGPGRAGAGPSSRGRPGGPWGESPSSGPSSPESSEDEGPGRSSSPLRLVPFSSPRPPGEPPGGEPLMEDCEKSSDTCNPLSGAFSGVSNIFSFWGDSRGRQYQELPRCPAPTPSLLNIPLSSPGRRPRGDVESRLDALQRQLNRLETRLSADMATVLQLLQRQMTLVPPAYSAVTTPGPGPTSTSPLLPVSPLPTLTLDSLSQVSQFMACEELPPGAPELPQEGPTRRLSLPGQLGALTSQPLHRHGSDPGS

SMILES	hERG current change (%, negative = inhibition) at 1uM
CNC(=O)OCCc1n(C)cc[n+]1C.[I-]	15.1%
COc1ccc(CN=C(N)N=C(N)N)cc1Cl.Cl	10.4%
CCC(=O)Oc1c(C(=O)CC)cc2c(C)cc(=O)oc2c1C	11.4%
Nc1ccccc1-c1nnn(CC(=O)N2CCCc3ccccc32)n1	11.9%
O=c1ccn(-c2cccc(C(F)(F)F)c2)nc1-c1ccn(-c2ccccc2)n1	7.69%
COc1ccc(NC(=O)CSc2c(C)n[nH]c2C)cc1	-12.8%
CCOCC(=O)N1CCN(Cc2ccc3c(c2)OCO3)CC1	9.95%
CCOC(=O)C1CCCN(C(=O)C2CCC(CNS(=O)(=O)c3ccc(NC(C)=O)cc3)CC2)C1 (stereo not shown)	11.4%
O=C(NCc1ccccn1)c1cc(-c2ccccc2Cl)on1	5.1%
Cc1cc(NC(=O)C(C)SCC(=O)Nc2cc(C(F)(F)F)ccc2N2CCOCC2)no1 (stereo not shown)	-0.415%
COc1ccc([C@H]2/C=C\CN(C(=O)C3CCCC3)[C@@H](C)C(=O)N2Cc2ccc(F)cc2)cc1	-2.54%
CC(C(=O)NC(C)(C)C)N(C(=O)CS(=O)CC(=O)Nc1ccc(F)cc1)C1CCCC1 (stereo not shown)	13.9%
COc1cc(NC(=O)C2CC(c3c(F)cccc3Cl)=NO2)c(OC)cc1Cl (stereo not shown)	12.7%
CCCCC(=O)Nc1nnc(-c2ccco2)o1	6.67%
CCNC(=O)N1CCCC(C(=O)c2ccc(OC)c(OC)c2)C1 (stereo not shown)	15.7%
COc1ccc(S(=O)(=O)N2CCC(N3CCN(c4ccccc4)CC3)CC2)cc1	-1.3%
CCOC(=O)CN1CCS(=O)(=O)CC1	12.6%
N#CCC(=O)Nc1ccc(C(=O)OCC(=O)Nc2ccccc2-c2ccccc2)cc1	11.8%
O=C(O)/C=C/C(=O)Nc1ccc(C(=O)c2ccccc2)cc1	12.8%
O=S(=O)(Nc1ccccc1N1CCOCC1)c1ccc(Cl)s1	-2.7%
Cc1ccccc1N(CC(=O)NC1CCCC1)C(=O)c1csnn1	6.41%
CN(C(=O)CN1C(=O)S/C(=C\c2ccccc2F)C1=O)C1CCS(=O)(=O)C1 (stereo not shown)	12.8%

SMILES	hERG current change (%, negative = inhibition) at 1uM
CS(=O)(=O)Nc1ccccc1C(=O)Nc1cccc(Cl)c1	2.66%
Nc1ncn(C23CC4CC(CC(C4)C2)C3)n1	-1.63%
Cc1nn(C(C)C(=O)NCC2CCCO2)c(C)c1[N+](=O)[O-] (stereo not shown)	4.46%
COc1ccc(NC(=O)C2=CC(c3ccco3)=NS(=O)(=O)N2C)cc1OC	3.3%
CCN(C(=O)CCS(=O)(=O)c1cc2c(cc1Cl)NC(=O)CO2)c1ccccc1	-3.44%
COc1ccc(NC(=O)C2CCOC2=O)cc1 (stereo not shown)	6.06%
Nc1nc(Cl)cc(N2CCC(c3cc(-c4ccc(Cl)cc4Cl)n[nH]3)CC2)n1	18.3%
O=C(COC(=O)CCc1ccc(S(=O)(=O)N2CCOCC2)cc1)Nc1cccc(Cl)c1	5.62%
O=C(O)C(=O)O.OCCN1CCN(C(=S)Nc2cccc(C(F)(F)F)c2)CC1	12.7%
Cc1cc(C(=O)N/N=C/c2ccccc2)c(C)o1	10.4%
CCCC/C(O)=C1\C(=O)CC(C)(C)CC1=Nc1ccc(N)cc1	9.76%
CCCCC(CC)C(=O)N1CCN(C(=O)c2ccco2)CC1 (stereo not shown)	7.71%
Cc1cc(C(=O)COC(=O)c2ccc(F)cc2F)c(C)n1C1CC1	4.3%
COC(=O)CSc1nc(N)c2c3c(sc2n1)C(c1ccccc1)SC(c1ccccc1)C3 (stereo not shown)	26.5%
COc1cc(/C=N/NC(=O)CSc2cc(C)c(Br)cc2C)ccc1O	8.67%
CC1(C)CC(NC(=O)c2cccc(S(=O)(=O)N(Cc3ccccc3)c3ccccc3)c2)CC(C)(C)N1	-3.29%
NS(=O)(=O)c1ccc(NC(=O)COc2ncnc3c2cnn3-c2ccccc2)cc1	8.97%
CCO[C@H]1OC(C(=O)N2CCN(Cc3ccccc3)CC2)=C[C@@H](c2ccccc2)[C@@H]1CCCO	9.1%
COn1c(SCc2ccc(C)cc2C)nc2ccccc2c1=O	4.18%
COCc1cc(C)nc(SCc2ccccc2Cl)c1C#N	14.8%
O=C(O)c1cccc(Nc2nc3ccccc3nc2NS(=O)(=O)c2cccs2)c1	12.2%
COc1ccc(OCC(=O)N/N=C/C(C)=C/c2ccco2)c(Br)c1	12.2%

SMILES	hERG current change (%, negative = inhibition) at 1uM
C/C(=N\NC(=O)C1(C)NC(C)(C)Cc2ccccc21)c1ccccc1 (stereo not shown)	14.7%
O=C(CCCN1C(=O)/C(=C/c2ccccc2Cl)SC1=S)N1CCCC1	10.8%
COc1ccc(C(=O)CSc2nc3[nH]ncc3c(=O)[nH]2)cc1	-0.714%
Cc1ccc(NC(=O)c2nc[nH]c2C(=O)N2CCc3ccccc3C2)cc1	18.7%
O=c1c2ccccc2nc(SCc2nnc(-c3ccccc3Br)o2)n1Cc1ccco1	10%
Cc1nc2nc(COc3ccccc3)nn2c(C)c1Cl	9.03%
COc1ccc(S(=O)(=O)Nc2ccccc2C(=O)N2CCCC2)cc1C	10.7%
CC(C)(C)NC(=S)Nc1ccc(Nc2ccccc2)cc1	9.7%
O=[N+]([O-])c1cc(-c2nc(-c3ccncc3)no2)cc([N+](=O)[O-])c1	-9.58%
O=C(NCC1CCCO1)c1nc(Cn2ccc([N+](=O)[O-])n2)no1 (stereo not shown)	7.64%
C=CCn1c(NC(=O)CC)c(C(=O)OCC)sc1=S	8.74%
C/C(=N\NC(=O)c1ccccc1C)c1cccnc1	10.9%
COc1ccc(C(C(=O)NC2CCCCC2)N(Cc2cccnc2)C(=O)c2snc(C(N)=O)c2N)cc1 (stereo not shown)	5.42%
CCOC(=O)C(C#N)(Cc1cc(OC)cc(OC)c1)Cc1cc(OC)cc(OC)c1	4.24%
COc1ccc(-c2nnn(CC(=O)N(Cc3ccco3)C(C(=O)NCC3CCCO3)c3ccco3)n2)cc1 (stereo not shown)	6.19%
CCOC(=O)c1ccc(NC(=O)c2nc[nH]c2C(=O)N2CCC(C)CC2)cc1	13.1%
CC(=O)c1cccc(CN2CCC(n3nccc3NC(=O)c3ccc4c(c3)OCO4)CC2)c1	6.25%
O=C1CCCC2=C1C(c1ccccn1)Nc1ccc(C(=O)c3ccccc3)cc1N2 (stereo not shown)	10.7%
CCOc1ccc(CCNC(=O)c2ccc(=O)[nH]c2)cc1OCC	4.91%
CSc1ncc(CN2CCCCC2C(=O)Nc2ccc(Oc3ccccc3)nc2)cn1 (stereo not shown)	5%
CC(=O)Nc1ccc(S(=O)(=O)NCC2CCCO2)cc1 (stereo not shown)	16%
Cc1nc(CCNS(=O)(=O)c2cccnc2)cs1	11.5%

SMILES	hERG current change (%, negative = inhibition) at 1uM
COc1ccccc1N(C)C(=O)c1cc(S(=O)(=O)N2CCCC2)cn1C	11.6%
O=C(N/N=C\c1cc([N+](=O)[O-])ccc1N1CCCC1)c1ccccn1	1.83%
CCCCSc1nc2c(cc1C#N)CCC2	5.55%
Cc1c(NC(=S)SCc2ccccc2)c(=O)n(-c2ccccc2)n1C	10.8%
CCOc1cc(/C=C/C(=O)c2ccc(O)cc2)ccc1OCC(=O)N(C)C	-3.93%
N#Cc1c2c(c(-n3cnc4ccccc43)n3c1nc1ccccc13)CCC2	11.8%
O=[N+]([O-])c1ccc(Cl)c(/C=N/n2c(C3CCCCC3)n[nH]c2=S)c1	-4.92%
COc1cccc(NC(=O)N2CCC(NC(=O)C(Cc3cccc(C)c3)NC(C)=O)CC2)c1 (stereo not shown)	3.75%
O=C(c1ccc(S(=O)(=O)N2CCC(c3nc4ccccc4[nH]3)CC2)cc1)N1CCOCC1	3.71%
CC(C)OCC1CC(CC(=O)NC(=S)Nc2cccc([N+](=O)[O-])c2)C(=O)O1 (stereo not shown)	-8.66%
Cc1n[nH]c(=S)n(/N=C/c2cccc([N+](=O)[O-])c2)c1=O	13.1%
Cc1cc(N/N=C/c2ccccc2)nc(N)n1	6.99%
CC1CC(C)CN(C(=O)C2CC(=O)N(c3ccc4c(c3)OCCO4)C2)C1 (stereo not shown)	9.9%
Cc1ccccc1N1CCN(CCCCN2C(=O)C3CCCN3C2=O)CC1.Cl.O (stereo not shown)	-26%
CC(C)(C)S(=O)(=O)/C(C#N)=N/Nc1ccc(C#N)cc1	20.6%
O=C(N=Nc1ccc(NOC(=O)c2ccccc2Br)cc1)c1ccccc1O	11.7%
FC(F)Oc1ccc(NC(=S)NN2CCOCC2)cc1	13.1%
C/C(=N\NC(=O)c1ccc(N2CCCC2=O)cc1)c1ccc(O)cc1O	14.2%
Cc1c(/C(O)=C2/C(=O)C(=O)N(Cc3cccnc3)C2c2cccs2)cnn1-c1ccccc1 (stereo not shown)	13.4%
N#Cc1ccccc1COC(=O)c1ccc2c(c1)OCO2	-1.2%
Cc1ccc(C)c(CSc2nnc(C)c(=O)n2N)c1	6.96%
Cn1nnc2c[n+](CC(=O)c3ccc(Cl)cc3)cc(Br)c21.[Br-]	4.21%
